The campaign covered roughly 410,000 compounds. About 6,400 (1.6%) were called active. This list was built around the results that the source calls inconclusive (neither active nor inactive); the mix of calls is not that of the screen. Calls follow the shape of the dose curve; as a rule, active = well fitted inhibition curve with a large enough effect; inconclusive = small, poorly fitted or top-dose-only effect; inactive = no such curve, though single readings can be large or run the other way. Where the call is inconclusive, the potency comes from a doubtful curve fit.
biological target: Glucagon-like peptide 1 receptor (Homo sapiens) (UniProt P43220); experiment: qHTS of GLP-1 Receptor Inverse Agonists (Inhibition Mode); details: HEK293 GLP-1R CRE-luciferase, luminescence, 24 h, GLP-1R form is constitutively active; series mostly up to 38.3 µM; also: nearly all actives have a fitted effect of over 55% in size
Sequence of UniProt P43220 (P43220 whole entry, looked up): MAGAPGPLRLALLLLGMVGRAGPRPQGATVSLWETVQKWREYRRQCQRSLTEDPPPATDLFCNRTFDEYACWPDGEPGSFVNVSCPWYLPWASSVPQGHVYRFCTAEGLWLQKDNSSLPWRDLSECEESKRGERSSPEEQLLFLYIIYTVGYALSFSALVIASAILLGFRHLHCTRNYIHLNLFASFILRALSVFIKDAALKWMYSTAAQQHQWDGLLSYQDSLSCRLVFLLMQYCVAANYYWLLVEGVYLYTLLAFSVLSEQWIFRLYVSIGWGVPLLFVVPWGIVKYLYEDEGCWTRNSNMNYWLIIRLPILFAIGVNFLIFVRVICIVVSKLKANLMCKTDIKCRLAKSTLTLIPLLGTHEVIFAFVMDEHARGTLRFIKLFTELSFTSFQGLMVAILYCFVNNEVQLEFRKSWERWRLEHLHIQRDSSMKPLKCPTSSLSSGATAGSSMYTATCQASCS
Summary of the method: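 Readout was luciferase luminescence, measured 12 min after detection reagent at room temperature. Beforehand, GLP-1R reporter HEK293 cells had sat 12 h, then received compounds for 24 hr at 37 deg C.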
Potency is read from the fitted curve at half-maximal effect; tags tell the direction and shape of the fitted curve.

Potency, inconclusive:
CCC1(c2ccc(F)cc2)NC(=O)N(CC(=O)NCc2ccc(F)cc2)C1=O (stereo unspecified) 8.91 µM [inhibitor, partial curve, poor fit], O=C(Nc1cccc(OC(F)(F)F)c1)c1cccc2c(-c3cccnc3)coc12 10 µM [inhibitor, partial curve, poor fit], COc1ccc(NS(=O)(=O)c2ccc(C)c(NC(=O)NC3CCCCC3)c2)cc1 10 µM [inhibitor, partial curve, poor fit], COc1ccc(CCn2c(NN)nc3c2c(=O)[nH]c(=O)n3C)cc1 11.2 µM [inhibitor, single point], Cc1[nH]c2ccccc2c1C(=O)C(=O)N1CCN(c2ccccc2Cl)CC1 31.6 µM [inhibitor, partial curve, poor fit], N#CCN1CCN(CC(=O)Nc2ccc(OCc3ccccc3)cc2)CC1 10 µM [inhibitor, partial curve, poor fit], CN1CCN(CC(O)COC(c2ccc(Cl)cc2)c2ccc(Cl)cc2)CC1 (stereo unspecified) 31.6 µM [inhibitor, single point], CCCCn1nnc(NC(=O)c2ccc(-c3ccccc3)cc2)n1 0.501 µM [inhibitor, full curve, poor fit], C/C(=N\S(=O)(=O)c1ccc(C)cc1)Nc1cc(C(C)C)c(O)cc1C 12.6 µM [inhibitor, partial curve, poor fit], C[C@@H]1CN([C@H](C)CO)C(=O)c2cc(NC(=O)Nc3ccc(F)cc3)ccc2O[C@H]1CN(C)C(=O)Nc1ccc(C(F)(F)F)cc1 28.2 µM [inhibitor, single point], S=c1[nH]ccc2ccccc12 28.2 µM [inhibitor, single point], O=C(Nc1nccs1)c1ccc(-c2ccccc2Cl)o1 28.2 µM [inhibitor, single point], COc1ccc(Oc2ccc(C(F)(F)F)cc2NC(=O)c2ccc(F)cc2)cc1 10 µM [inhibitor, partial curve, poor fit], COc1ccc(N2CCN(C(=O)CN3C(=O)NC4(CCCc5ccccc54)C3=O)CC2)cc1 (stereo unspecified) 14.1 µM [inhibitor, single point], O=C(CCc1ccccc1)NNC(=O)Nc1ccc(F)c(Cl)c1 28.2 µM [inhibitor, single point], CC(=O)N1CC(C)Sc2ccc(S(=O)(=O)NCc3ccc(Cl)cc3)cc21 (stereo unspecified) 12.6 µM [inhibitor, partial curve, poor fit]
